# The other results are listed elsewhere or left out.
# Legend:
# Assay in all cases: glycan array binding signal (z-score within array); higher = stronger binding
# Conditions in all cases: glycan notation: IUPAC condensed, linker removed
# [1] = biological target: GlcNAc(b1-3)[GlcNAc(b1-4)][GlcNAc(b1-6)]GlcNAc
# Outline: (§1)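 Glycan array data came from 3228 arrays in the Consortium for Functional Glycomics database, and only arrays with an available protein sequence were kept. Glycan names were put into IUPAC-condensed notation, and columns mapping to the same glycan were averaged. The binding signal is a within-array Z-score, averaged across arrays of one protein sequence run at different concentrations or buffers and across linkers. A negative Z-score can be read as non-binding.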
# [2] = biological target: GlcNAc(b1-3)[GlcNAc(b1-6)]Gal(b1-4)GlcNAc
# Outline: as §1
# [3] = biological target: GlcNAc(b1-3)[GlcNAc(b1-6)]GalNAc
# Outline: as §1
# [4] = biological target: GlcNAc(b1-4)Gal(b1-4)GlcNAc
# Outline: as §1
# [5] = biological target: GlcNAc(b1-4)GlcNAc
# Outline: as §1
# [6] = biological target: GlcNAc(b1-4)GlcNAc(b1-4)GlcNAc
# Outline: as §1
# [7] = biological target: GlcNAc(b1-4)GlcNAc(b1-4)GlcNAc(b1-4)GlcNAc(b1-4)GlcNAc
# Outline: as §1
# [8] = biological target: GlcNAc(b1-4)GlcNAc(b1-4)GlcNAc(b1-4)GlcNAc(b1-4)GlcNAc(b1-4)GlcNAc
# Outline: as §1
# [9] = biological target: GlcNAc(b1-4)[GlcNAc(b1-6)]GalNAc
# Outline: as §1
# [10] = biological target: GlcNAc(b1-6)Gal(b1-4)GlcNAc
# Outline: as §1
# [11] = biological target: GlcNAc(b1-6)GalNAc
# Outline: as §1
# [12] = biological target: GlcNAc6S(b1-3)Gal(b1-4)GlcNAc
# Outline: as §1
# [13] = biological target: Kdn(a2-3)Gal(b1-3)GalNAc
# Outline: as §1
# [14] = biological target: Kdn(a2-3)Gal(b1-3)GlcNAc
# Outline: as §1
# [15] = biological target: Kdn(a2-3)Gal(b1-4)Glc
# Outline: as §1
# [16] = biological target: Kdn(a2-3)Gal(b1-4)GlcNAc
# Outline: as §1
# [17] = biological target: Kdn(a2-3)Gal(b1-4)[Fuc(a1-3)]GlcNAc
# Outline: as §1
# [18] = biological target: Kdn(a2-6)Gal(b1-4)GlcNAc
# Outline: as §1
# [19] = biological target: Man(a1-2)Man(a1-2)Man(a1-3)Man
# Outline: as §1
# [20] = biological target: Man(a1-2)Man(a1-2)Man(a1-6)[Man(a1-3)]Man
# Outline: as §1
# [21] = biological target: Man(a1-2)Man(a1-3)Man
# Outline: as §1
# [22] = biological target: Man(a1-2)Man(a1-3)[Man(a1-2)Man(a1-6)]Man
# Outline: as §1
# [23] = biological target: Man(a1-2)Man(a1-3)[Man(a1-2)Man(a1-6)]Man(a1-6)[Man(a1-2)Man(a1-2)Man(a1-3)]Man
# Outline: as §1
# [24] = biological target: Man(a1-2)Man(a1-3)[Man(a1-2)Man(a1-6)]Man(a1-6)[Man(a1-2)Man(a1-2)Man(a1-3)]Man(b1-4)GlcNAc(b1-4)GlcNAc
# Outline: as §1
# [25] = biological target: Man(a1-2)Man(a1-3)[Man(a1-6)]Man(a1-6)[Man(a1-2)Man(a1-3)]Man(b1-4)GlcNAc(b1-4)GlcNAc
# Outline: as §1
# [26] = biological target: Man(a1-2)Man(a1-6)[Man(a1-3)]Man(a1-6)[Man(a1-2)Man(a1-2)Man(a1-3)]Man
# Outline: as §1
# [27] = biological target: Man(a1-2)Man(a1-6)[Man(a1-3)]Man(a1-6)[Man(a1-2)Man(a1-2)Man(a1-3)]Man(b1-4)GlcNAc(b1-4)GlcNAc
# Outline: as §1
# [28] = biological target: Man(a1-3)[Man(a1-6)]Man
# Outline: as §1
# [29] = biological target: Man(a1-3)[Man(a1-6)]Man(a1-6)[Man(a1-2)Man(a1-3)]Man(b1-4)GlcNAc(b1-4)GlcNAc
# Outline: as §1
# [30] = biological target: Man(a1-3)[Man(a1-6)]Man(a1-6)[Man(a1-3)]Man
# Outline: as §1
# [31] = biological target: Man(a1-3)[Man(a1-6)]Man(a1-6)[Man(a1-3)]Man(b1-4)GlcNAc(b1-4)GlcNAc
# Outline: as §1
# [32] = biological target: Man(a1-3)[Man(a1-6)]Man(b1-4)GlcNAc(b1-4)GlcNAc
# Outline: as §1
# [33] = biological target: Man(a1-3)[Man(a1-6)]Man(b1-4)GlcNAc(b1-4)[Fuc(a1-6)]GlcNAc
# Outline: as §1
# [34] = biological target: Man(a1-6)Man
# Outline: as §1
# [35] = biological target: Man(b1-4)GlcNAc
# Outline: as §1
# [36] = biological target: MurNAc(b1-4)GlcNAc
# Outline: as §1
# [37] = biological target: Neu5Ac(a2-3)Gal
# Outline: as §1
# [38] = biological target: Neu5Ac(a2-3)Gal(b1-3)GalNAc
# Outline: as §1
binder,measurement,setting,value
CPA (Cicer arietinum) (protein) MAFSYLNLVLVTLTTLFFLQTTKVKSQKSVSFHITNFTISRPSITLQGTAEFLPNVLLLNDIEHPVFVVGRALYSKPITLWNNKTGKVASFVTSFTFDVQDLKKTVPGHGLVFFLAPSGSEIPFSSDGGNLGVVDGKNAFNRFVGVEFDNFVNSWDPKYSHVGINVNSLISTKTVKWNRVSGELVKVSIVYDSVSTTLTVIVTYKNGQISILSQLVDLKAVLPDTVNIGFSASTTLVSPRQLHNIHSWSFTSTFET,glycan array binding signal (z-score),[1],-0.57
same,glycan array binding signal (z-score),[2],0.167
same,glycan array binding signal (z-score),[3],-0.586
same,glycan array binding signal (z-score),[4],-0.734
same,glycan array binding signal (z-score),[5],1.55
same,glycan array binding signal (z-score),[6],1.39
same,glycan array binding signal (z-score),[7],1.45
same,glycan array binding signal (z-score),[8],2.35
same,glycan array binding signal (z-score),[9],0.015
same,glycan array binding signal (z-score),[10],0.404
same,glycan array binding signal (z-score),[11],0.357
same,glycan array binding signal (z-score),[12],-0.056
same,glycan array binding signal (z-score),[13],0.091
same,glycan array binding signal (z-score),[14],-0.656
same,glycan array binding signal (z-score),[15],-0.762
same,glycan array binding signal (z-score),[16],-0.585
same,glycan array binding signal (z-score),[17],0.215
same,glycan array binding signal (z-score),[18],-0.065
same,glycan array binding signal (z-score),[19],-0.392
same,glycan array binding signal (z-score),[20],-0.38
same,glycan array binding signal (z-score),[21],-0.559
same,glycan array binding signal (z-score),[22],-0.461
same,glycan array binding signal (z-score),[23],-0.462
same,glycan array binding signal (z-score),[24],0.049
same,glycan array binding signal (z-score),[25],-0.274
same,glycan array binding signal (z-score),[26],-0.429
same,glycan array binding signal (z-score),[27],0.228
same,glycan array binding signal (z-score),[28],-0.635
same,glycan array binding signal (z-score),[29],4.19
same,glycan array binding signal (z-score),[30],-0.493
same,glycan array binding signal (z-score),[31],-0.545
same,glycan array binding signal (z-score),[32],-0.234
same,glycan array binding signal (z-score),[33],-0.1
same,glycan array binding signal (z-score),[34],-0.467
same,glycan array binding signal (z-score),[35],-0.504
same,glycan array binding signal (z-score),[36],0.406
same,glycan array binding signal (z-score),[37],-0.529
same,glycan array binding signal (z-score),[38],-0.482
